System: Hep G2 cells
Assay: Inhibitory activity against Hep G2 cells
Type: cell-based
Details: Hep G2 cells (liver cancer); data not shown
Text: Hep G2 were purchased from ATCC and cultured in DMEM+sodium pyruvate with 10% FBS and 1% penicillin-streptomycin.

| SMILES | concentration without any inhibitory activity |
| --- | --- |
| Clc1ccc2ncc(-c3cccc(NC4CCNCC4)n3)n2c1 [Compound I-2, 6-(6-chloroimidazo[1,2-a]pyridin-3-yl)-N-(piperidin-4-yl)pyridin-2-amine] | > 10 µM |
| COc1cc2ncc(-c3cccc(NC4CCNC4)n3)n2cc1-c1cnn(C)c1 (centres unmarked) [Compound I-24, 6-(7-methoxy-6-(1-methyl-1H-pyrazol-4-yl)imidazo[1,2-a]pyridin-3-yl)-N-(pyrrolidin-3-yl)pyridin-2-amine] | > 10 µM |

Reference: patent US11542261B2, “Substituted Imidazo[1,2-a]-pyridines as IRAK 1/4 and FLT3 inhibitors” (CHILDREN'S HOSPITAL MEDICAL CENTER, priority 2016, dated 2023)
